# Source: the supplement of paper PMC8728848
# The other results are listed elsewhere or left out.
# Columns and labels:
# Test in all cases: glycan array binding signal (z-score within array); higher = stronger binding
# Details in all cases: glycan notation: IUPAC condensed, linker removed
# [1] = molecular target: Neu5Ac(a2-3)Gal(b1-3)GlcNAc(b1-6)GalNAc
# Procedure, shortened: (§1)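 The binding signal is a Z-score computed within each array. Data were drawn from 3228 arrays in the Consortium for Functional Glycomics database, restricted to those with a known protein sequence. Scores were averaged over arrays of the same protein sequence at different concentrations or buffers, and over linkers, and negative values can be taken as non-binding.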
# [2] = molecular target: Neu5Ac(a2-3)Gal(b1-3)GlcNAc6S
# Procedure, shortened: as §1
# [3] = molecular target: Neu5Ac(a2-3)Gal(b1-3)[Fuc(a1-4)]GlcNAc
# Procedure, shortened: as §1
# [4] = molecular target: Neu5Ac(a2-3)Gal(b1-3)[Fuc(a1-4)]GlcNAc(b1-3)Gal(b1-3)[Fuc(a1-4)]GlcNAc
# Procedure, shortened: as §1
# [5] = molecular target: Neu5Ac(a2-3)Gal(b1-3)[Fuc(a1-4)]GlcNAc(b1-3)Gal(b1-4)[Fuc(a1-3)]GlcNAc
# Procedure, shortened: as §1
# [6] = molecular target: Neu5Ac(a2-3)Gal(b1-3)[GlcNAc(b1-6)]GalNAc
# Procedure, shortened: as §1
# [7] = molecular target: Neu5Ac(a2-3)Gal(b1-3)[Neu5Ac(a2-6)]GalNAc
# Procedure, shortened: as §1
# [8] = molecular target: Neu5Ac(a2-3)Gal(b1-3)[Neu5Ac(a2-6)]GlcNAc(b1-3)[Fuc(a1-3)[Gal(b1-4)]GlcNAc(b1-6)]Gal(b1-4)Glc
# Procedure, shortened: as §1
# [9] = molecular target: Neu5Ac(a2-3)Gal(b1-3)]Neu5Ac(a2-3)Gal(b1-4)]GlcNAc
# Procedure, shortened: as §1
# [10] = molecular target: Neu5Ac(a2-3)Gal(b1-4)Glc
# Procedure, shortened: as §1
# [11] = molecular target: Neu5Ac(a2-3)Gal(b1-4)GlcNAc
# Procedure, shortened: as §1
# [12] = molecular target: Neu5Ac(a2-3)Gal(b1-4)GlcNAc(b1-2)Man
# Procedure, shortened: as §1
# [13] = molecular target: Neu5Ac(a2-3)Gal(b1-4)GlcNAc(b1-2)Man(a1-3)[GlcNAc(b1-4)][Neu5Ac(a2-3)Gal(b1-4)GlcNAc(b1-2)Man(a1-6)]Man(b1-4)GlcNAc(b1-4)GlcNAc
# Procedure, shortened: as §1
# [14] = molecular target: Neu5Ac(a2-3)Gal(b1-4)GlcNAc(b1-2)Man(a1-3)[Neu5Ac(a2-3)Gal(b1-4)GlcNAc(b1-2)Man(a1-6)]Man(b1-4)GlcNAc(b1-4)GlcNAc
# Procedure, shortened: as §1
# [15] = molecular target: Neu5Ac(a2-3)Gal(b1-4)GlcNAc(b1-2)Man(a1-3)[Neu5Ac(a2-3)Gal(b1-4)GlcNAc(b1-2)Man(a1-6)]Man(b1-4)GlcNAc(b1-4)[Fuc(a1-6)]GlcNAc
# Procedure, shortened: as §1
# [16] = molecular target: Neu5Ac(a2-3)Gal(b1-4)GlcNAc(b1-2)Man(a1-3)[Neu5Ac(a2-6)Gal(b1-4)GlcNAc(b1-2)Man(a1-6)]Man(b1-4)GlcNAc(b1-4)GlcNAc
# Procedure, shortened: as §1
# [17] = molecular target: Neu5Ac(a2-3)Gal(b1-4)GlcNAc(b1-2)[Neu5Ac(a2-3)Gal(b1-4)GlcNAc(b1-4)]Man(a1-3)[GlcNAc(b1-4)][Neu5Ac(a2-3)Gal(b1-4)GlcNAc(b1-2)[Neu5Ac(a2-3)Gal(b1-4)GlcNAc(b1-6)]Man(a1-6)]Man(b1-4)GlcNAc(b1-4)GlcNAc
# Procedure, shortened: as §1
# [18] = molecular target: Neu5Ac(a2-3)Gal(b1-4)GlcNAc(b1-2)[Neu5Ac(a2-3)Gal(b1-4)GlcNAc(b1-4)]Man(a1-3)[GlcNAc(b1-4)][Neu5Ac(a2-3)Gal(b1-4)GlcNAc(b1-4)Man(a1-6)]Man(b1-4)GlcNAc(b1-4)GlcNAc
# Procedure, shortened: as §1
# [19] = molecular target: Neu5Ac(a2-3)Gal(b1-4)GlcNAc(b1-2)[Neu5Ac(a2-3)Gal(b1-4)GlcNAc(b1-6)]Man(a1-6)[Neu5Ac(a2-3)Gal(b1-4)GlcNAc(b1-2)Man(a1-3)][GlcNAc(b1-4)]Man(b1-4)GlcNAc(b1-4)GlcNAc
# Procedure, shortened: as §1
# [20] = molecular target: Neu5Ac(a2-3)Gal(b1-4)GlcNAc(b1-3)Gal
# Procedure, shortened: as §1
# [21] = molecular target: Neu5Ac(a2-3)Gal(b1-4)GlcNAc(b1-3)Gal(b1-3)GlcNAc
# Procedure, shortened: as §1
# [22] = molecular target: Neu5Ac(a2-3)Gal(b1-4)GlcNAc(b1-3)Gal(b1-4)GlcNAc
# Procedure, shortened: as §1
# [23] = molecular target: Neu5Ac(a2-3)Gal(b1-4)GlcNAc(b1-3)Gal(b1-4)GlcNAc(b1-2)Man(a1-3)[Neu5Ac(a2-3)Gal(b1-4)GlcNAc(b1-3)Gal(b1-4)GlcNAc(b1-2)Man(a1-6)]Man(b1-4)GlcNAc(b1-4)GlcNAc
# Procedure, shortened: as §1
# [24] = molecular target: Neu5Ac(a2-3)Gal(b1-4)GlcNAc(b1-3)Gal(b1-4)GlcNAc(b1-3)Gal(b1-4)GlcNAc
# Procedure, shortened: as §1
# [25] = molecular target: Neu5Ac(a2-3)Gal(b1-4)GlcNAc(b1-3)Gal(b1-4)GlcNAc(b1-3)Gal(b1-4)GlcNAc(b1-2)Man(a1-3)[Neu5Ac(a2-3)Gal(b1-4)GlcNAc(b1-3)Gal(b1-4)GlcNAc(b1-3)Gal(b1-4)GlcNAc(b1-2)Man(a1-6)]GalNAc
# Procedure, shortened: as §1
# [26] = molecular target: Neu5Ac(a2-3)Gal(b1-4)GlcNAc(b1-3)Gal(b1-4)GlcNAc(b1-3)GalNAc
# Procedure, shortened: as §1
# [27] = molecular target: Neu5Ac(a2-3)Gal(b1-4)GlcNAc(b1-3)Gal(b1-4)GlcNAc(b1-3)[Neu5Ac(a2-3)Gal(b1-4)GlcNAc(b1-3)Gal(b1-4)GlcNAc(b1-6)]GalNAc
# Procedure, shortened: as §1
# [28] = molecular target: Neu5Ac(a2-3)Gal(b1-4)GlcNAc(b1-3)Gal(b1-4)GlcNAc(b1-6)[Gal(b1-3)]GalNAc
# Procedure, shortened: as §1
# [29] = molecular target: Neu5Ac(a2-3)Gal(b1-4)GlcNAc(b1-3)Gal(b1-4)[Fuc(a1-3)]GlcNAc
# Procedure, shortened: as §1
# [30] = molecular target: Neu5Ac(a2-3)Gal(b1-4)GlcNAc(b1-3)GalNAc
# Procedure, shortened: as §1
binder,measurement,setting,value
Epa1to9 (Candida glabrata) (protein) MGSSHHHHHHSSGLVPRGSHMTSSNDISLASKDPTTFPLGCSPDITTPKKGLSMELYSYDFRKKGSYPCWDAAYLDPNYPRTGYKSHRLLAKVDGVTGNINFYYHATKGCTPQLGHLPASYNYPKPLTMTNFTMLLYGYFRPKVTGFHTFTISADDLLFVNFGAGNAFDCCRRDSSADHFGNYQAYAIWGSKTAKDELTVHLDAGVYYPIRLFYNNRDYHGALSFTFKTESNENTVSDFSEYFFSLDDTEEGCPGLISYD,glycan array binding signal (z-score),[1],-0.339
same,glycan array binding signal (z-score),[2],-0.339
same,glycan array binding signal (z-score),[3],-0.371
same,glycan array binding signal (z-score),[4],-0.324
same,glycan array binding signal (z-score),[5],-0.372
same,glycan array binding signal (z-score),[6],-0.328
same,glycan array binding signal (z-score),[7],-0.182
same,glycan array binding signal (z-score),[8],-0.271
same,glycan array binding signal (z-score),[9],-0.222
same,glycan array binding signal (z-score),[10],-0.35
same,glycan array binding signal (z-score),[11],-0.349
same,glycan array binding signal (z-score),[12],-0.322
same,glycan array binding signal (z-score),[13],-0.347
same,glycan array binding signal (z-score),[14],-0.339
same,glycan array binding signal (z-score),[15],-0.338
same,glycan array binding signal (z-score),[16],-0.322
same,glycan array binding signal (z-score),[17],-0.375
same,glycan array binding signal (z-score),[18],-0.357
same,glycan array binding signal (z-score),[19],-0.344
same,glycan array binding signal (z-score),[20],-0.359
same,glycan array binding signal (z-score),[21],-0.35
same,glycan array binding signal (z-score),[22],-0.342
same,glycan array binding signal (z-score),[23],-0.24
same,glycan array binding signal (z-score),[24],-0.327
same,glycan array binding signal (z-score),[25],-0.308
same,glycan array binding signal (z-score),[26],-0.345
same,glycan array binding signal (z-score),[27],-0.202
same,glycan array binding signal (z-score),[28],0.155
same,glycan array binding signal (z-score),[29],-1.82
same,glycan array binding signal (z-score),[30],-0.353
